Earlier results on 56 sequences are cited in article PMC11006913.

Data set [1] concerns the target T1, PBX4 (Homo sapiens) (UniProt Q9BYU1).
T1 sequence: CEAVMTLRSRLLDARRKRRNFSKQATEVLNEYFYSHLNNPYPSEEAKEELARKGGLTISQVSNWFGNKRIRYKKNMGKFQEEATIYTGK
The settings on record: PBM; conditions not shown; double strand, one strand shown; scale: upbm affinity estimate (log intensity, higher = more binding, comparable within an allelic series).

In data set [2] the target is T2, PBX4 R215Q (Homo sapiens) (UniProt Q9BYU1).
T2 sequence: T1 sequence with R19Q
The settings on record: PBM; conditions not shown; double strand, one strand shown; scale: upbm affinity estimate (log intensity, higher = more binding, comparable within an allelic series).

Numbering of substitutions follows the chain as printed. This is one part of the list.

Turning to CATCCGAC [8-mer CATCCGAC], the binding signal was 9.99 in data set [1] and 9.85 in data set [2].

On to GCCGTTAC [8-mer GCCGTTAC], for which the binding signal is 9.98 in data set [1] and 9.83 in data set [2].

With GGTTCGGA [8-mer GGTTCGGA], the binding signal in data set [1] is 9.86; in data set [2] it was 9.83.

Consider CGCTGATA [8-mer CGCTGATA], for which the binding signal was 10 in data set [1] and 9.9 in data set [2].

Regarding GAAGACCA [8-mer GAAGACCA], the values for the binding signal in data set [1] and in data set [2] were 9.93 and 9.85, respectively.

As to AAGATCCG [8-mer AAGATCCG], the binding signal in data set [1] was 10; in data set [2], 9.84.

Regarding AAGGACGC [8-mer AAGGACGC], the binding signal in data set [1] was 9.98; in data set [2] it was 9.9.

As to CCTCCGAA [8-mer CCTCCGAA], the binding signal in data set [1] was 9.8; in data set [2], 9.81.

Take CCGGAGGC [8-mer CCGGAGGC]: the binding signal in data set [1] was 9.56; in data set [2], 9.67.

On to CATGTCAC [8-mer CATGTCAC], for which the binding signal is 10.9 in data set [1] and 10.3 in data set [2].

As to GCATGTCA [8-mer GCATGTCA], the figures for the binding signal in data set [1] and in data set [2] were 11 and 10.3, respectively.

In the case of GCGCCACC [8-mer GCGCCACC], the binding signal in data set [1] is 9.65; in data set [2] it was 9.66.

On to TCATGTCA [8-mer TCATGTCA], for which the binding signal in data set [1] is 11; in data set [2] it was 10.2.

On to TGATGACA [8-mer TGATGACA], for which the values for the binding signal in data set [1] and in data set [2] were 10.6 and 10.1, respectively.

GTAGTAAC [8-mer GTAGTAAC]: the binding signal in data set [1] was 10; in data set [2], 9.92.

As for AGGCCTAC [8-mer AGGCCTAC], the binding signal in data set [1] was 9.97; in data set [2], 9.8.

Consider AGACAAGG [8-mer AGACAAGG], for which the binding signal in data set [1] was 9.97; in data set [2] it was 9.84.

For CTCGTCAA [8-mer CTCGTCAA], the binding signal in data set [1] is 11.1; in data set [2], 10.2.

In the case of CAGCCCCC [8-mer CAGCCCCC], the binding signal was 9.58 in data set [1] and 9.77 in data set [2].

With ATTCGTCA [8-mer ATTCGTCA], the binding signal was 10.9 in data set [1] and 10.2 in data set [2].

Regarding GACGTTCC [8-mer GACGTTCC], the figures for the binding signal in data set [1] and in data set [2] were 10 and 9.86, respectively.

In the case of CAAGAGAG [8-mer CAAGAGAG], the values for the binding signal in data set [1] and in data set [2] were 9.91 and 9.87, respectively.

As to GGCCACAA [8-mer GGCCACAA], the binding signal in data set [1] is 9.79; in data set [2], 9.77.

With CAGCAGGC [8-mer CAGCAGGC], the results for the binding signal in data set [1] and in data set [2] were 9.8 and 9.76, respectively.

In the case of ACACGGGA [8-mer ACACGGGA], the binding signal was 10 in data set [1] and 9.97 in data set [2].

For CCCCAAAG [8-mer CCCCAAAG], the binding signal in data set [1] was 9.85; in data set [2], 9.8.

For the sequence GGCTCGGA [8-mer GGCTCGGA], the binding signal in data set [1] and in data set [2] was 9.72 in each case.

For AGCGAGAG [8-mer AGCGAGAG], the values for the binding signal in data set [1] and in data set [2] were 9.92 and 9.93, respectively.

Take CGACCCTA [8-mer CGACCCTA]: the binding signal in data set [1] is 9.73; in data set [2], 9.78.

Take ACATGTTA [8-mer ACATGTTA]: the binding signal in data set [1] is 10.7; in data set [2], 10.1.

For the sequence AATGGAGG [8-mer AATGGAGG], the binding signal was 10 in data set [1] and 9.93 in data set [2].

Regarding ATGACGAG [8-mer ATGACGAG], the binding signal in data set [1] is 10.9; in data set [2], 10.2.

As for GGAATTCC [8-mer GGAATTCC], the binding signal was 9.95 in data set [1] and 9.87 in data set [2].

For the sequence CACGTCAA [8-mer CACGTCAA], the values for the binding signal in data set [1] and in data set [2] were 10.8 and 10.2, respectively.

For the sequence ACGCTACT [8-mer ACGCTACT], the binding signal in data set [1] and in data set [2] was 9.87 in each case.

Take TATGTCAA [8-mer TATGTCAA]: the binding signal is 10.8 in data set [1] and 10.2 in data set [2].

For the sequence CCCGTACC [8-mer CCCGTACC], the binding signal in data set [1] is 9.77; in data set [2] it was 9.81.

On to CTCCTTTA [8-mer CTCCTTTA], for which the values for the binding signal in data set [1] and in data set [2] were 9.89 and 9.88, respectively.

Turning to AGCAAAGG [8-mer AGCAAAGG], the figures for the binding signal in data set [1] and in data set [2] were 9.93 and 9.92, respectively.

Take CATCAATG [8-mer CATCAATG]: the figures for the binding signal in data set [1] and in data set [2] were 10.6 and 10.1, respectively.

Regarding ACATCAAA [8-mer ACATCAAA], the binding signal in data set [1] was 10.8; in data set [2] it was 10.2.

Consider TACTGCTA [8-mer TACTGCTA], for which the binding signal in data set [1] was 9.9; in data set [2] it was 9.94.

On to CGTCAAAG [8-mer CGTCAAAG], for which the binding signal was 10.8 in data set [1] and 10.2 in data set [2].

For the sequence AAGTGTCC [8-mer AAGTGTCC], the figures for the binding signal in data set [1] and in data set [2] were 9.99 and 9.93, respectively.

For the sequence CTATGGGC [8-mer CTATGGGC], the values for the binding signal in data set [1] and in data set [2] were 9.86 and 9.85, respectively.

Regarding CGGTGTGC [8-mer CGGTGTGC], the values for the binding signal in data set [1] and in data set [2] were 9.74 and 9.73, respectively.

Regarding ATTGATGA [8-mer ATTGATGA], the binding signal in data set [1] was 10.8; in data set [2], 10.2.

On to GTCGGTGA [8-mer GTCGGTGA], for which the binding signal is 9.98 in data set [1] and 9.92 in data set [2].

Turning to TAGCCCGA [8-mer TAGCCCGA], the binding signal is 9.86 in data set [1] and 9.81 in data set [2].

Consider GCCGCGCA [8-mer GCCGCGCA], for which the binding signal is 9.66 in data set [1] and 9.67 in data set [2].

In the case of ACCGCGTA [8-mer ACCGCGTA], the results for the binding signal in data set [1] and in data set [2] were 9.92 and 9.85, respectively.

Take TCAAATCA [8-mer TCAAATCA]: the values for the binding signal in data set [1] and in data set [2] were 10.6 and 10.2, respectively.

TCCATCAA [8-mer TCCATCAA]: the binding signal in data set [1] is 10.8; in data set [2] it was 10.2.

Consider TCCGCAGA [8-mer TCCGCAGA], for which the values for the binding signal in data set [1] and in data set [2] were 9.88 and 9.83, respectively.

Turning to AGGGTTTC [8-mer AGGGTTTC], the results for the binding signal in data set [1] and in data set [2] were 9.99 and 9.98, respectively.

For ATCCGTCA [8-mer ATCCGTCA], the figures for the binding signal in data set [1] and in data set [2] were 10.6 and 10.1, respectively.
